{"source": "paper PMC5651818", "about": "“VPS18 recruits VPS41 to the human HOPS complex via a RING–RING interaction” (Biochemical Journal, 2017)", "binders": {"B1": {"name": "His-tagged VPS18 RING domain (residues 842–973) (domain or fragment, UniProt Q9P253 842-973)", "chain": "GRYGTVEPQDKCATCDFPLLNRPFYLFLCGHMFHADCLLQAVRPGLPAYKQARLEELQRKLGAAPPPAKGSARAKEAEGGAATAGPSREQLKADLDELVAAECVYCGELMIRSIDRPFIDPQRYEEEQLSWL"}, "B2": {"name": "tag-free VPS41 RING domain (residues 778–854) (domain or fragment, human, UniProt P49754 778-854, looked up)", "chain": "TQMKGVLVDEENICESCLSPILPSDAAKPFSVVVFHCRHMFHKECLPMPSMNSAAQFCNICSAKNRGPGSAILEMKK", "notes": "monomeric by SEC-MALS; also called untagged VPS41 RING; not shown: GST, N-terminal, cleaved"}}, "key": {"[1]": {"biological_target": "His-tagged VPS18 RING domain (residues 842–973) (human) (UniProt Q9P253)", "assay": "SEC-MALS; Superdex 75 10/300, room temperature, 20 mM Tris (pH 7.5), 150 mM NaCl, 0.5 mM EDTA; complex formed from 0.48 mg/ml VPS41 RING and 0.68 mg/ml VPS18 RING H6 on ice for 15 min; both purified"}, "[2]": {"biological_target": "T1, GST VPS8 RING long (residues 1246–1426) (human) (UniProt Q8N3P4)", "T1 sequence": "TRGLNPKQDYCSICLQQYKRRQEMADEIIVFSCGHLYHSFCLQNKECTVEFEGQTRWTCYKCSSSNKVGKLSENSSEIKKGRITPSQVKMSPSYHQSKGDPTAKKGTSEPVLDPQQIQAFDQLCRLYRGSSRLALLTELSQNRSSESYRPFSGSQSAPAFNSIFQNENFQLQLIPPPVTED", "assay": "pull-down; 1.5 nmol purified GST-tagged bait on magnetic glutathione beads; 1.5 nmol purified prey from E. coli; 4°C, 60 min; 20 mM Tris, 200 mM NaCl, 0.1% NP-40, 1 mM DTT; SDS-PAGE (Coomassie); both purified"}, "[3]": {"biological_target": "T2, GST VPS8 RING short (residues 1246–1320) (human) (UniProt Q8N3P4)", "T2 sequence": "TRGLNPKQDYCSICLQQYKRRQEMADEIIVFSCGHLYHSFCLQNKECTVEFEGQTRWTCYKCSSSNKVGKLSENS", "assay": "pull-down; 1.5 nmol purified GST-tagged bait on magnetic glutathione beads; 1.5 nmol purified prey from E. coli; 4°C, 60 min; 20 mM Tris, 200 mM NaCl, 0.1% NP-40, 1 mM DTT; SDS-PAGE (Coomassie); both purified"}, "[4]": {"biological_target": "tag-free VPS41 RING domain (residues 778–854) (human) (UniProt P49754)", "assay": "SEC-MALS; Superdex 75 10/300, room temperature, 20 mM Tris (pH 7.5), 150 mM NaCl, 0.5 mM EDTA; complex formed from 0.48 mg/ml VPS41 RING and 0.68 mg/ml VPS18 RING H6 on ice for 15 min; both purified"}}, "note": "No constants are given. Whether binding was seen depends on the method and setting. Sequences can lack the tags named with a protein.", "data": [{"binder": "B1", "values": [{"measurement": "binding", "setting": "[1]", "value": "no binding (tested: injected at 1.16 mg/ml)"}, {"measurement": "binding", "setting": "[2]", "value": "no binding (tested: 1.5 nmol bait, 1.5 nmol prey)"}, {"measurement": "binding", "setting": "[3]", "value": "no binding (tested: 1.5 nmol bait, 1.5 nmol prey)"}]}, {"binder": "B2", "values": [{"measurement": "binding", "setting": "[4]", "value": "no binding (tested: injected at 1.33 mg/ml)"}]}]}
